Laboratory results: publication PMC4336329 (PLoS ONE, 2015)
The whole screen tested about 310,000 compounds, of which about 14,000 (4.5%) showed an effect of 50% or more. The effect is printed as a negative number. Some of the results follow.

These compounds were tested against human ether-à-go-go-related gene (hERG) potassium channel (human, UniProt Q12809) (assay: primary screen, population patch clamp on CHO cells stably expressing hERG).
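Also: peak tail current of the secondary pulse compared with the same well before compound.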

human ether-à-go-go-related gene (hERG) potassium channel, sequence (Q12809 whole entry, looked up): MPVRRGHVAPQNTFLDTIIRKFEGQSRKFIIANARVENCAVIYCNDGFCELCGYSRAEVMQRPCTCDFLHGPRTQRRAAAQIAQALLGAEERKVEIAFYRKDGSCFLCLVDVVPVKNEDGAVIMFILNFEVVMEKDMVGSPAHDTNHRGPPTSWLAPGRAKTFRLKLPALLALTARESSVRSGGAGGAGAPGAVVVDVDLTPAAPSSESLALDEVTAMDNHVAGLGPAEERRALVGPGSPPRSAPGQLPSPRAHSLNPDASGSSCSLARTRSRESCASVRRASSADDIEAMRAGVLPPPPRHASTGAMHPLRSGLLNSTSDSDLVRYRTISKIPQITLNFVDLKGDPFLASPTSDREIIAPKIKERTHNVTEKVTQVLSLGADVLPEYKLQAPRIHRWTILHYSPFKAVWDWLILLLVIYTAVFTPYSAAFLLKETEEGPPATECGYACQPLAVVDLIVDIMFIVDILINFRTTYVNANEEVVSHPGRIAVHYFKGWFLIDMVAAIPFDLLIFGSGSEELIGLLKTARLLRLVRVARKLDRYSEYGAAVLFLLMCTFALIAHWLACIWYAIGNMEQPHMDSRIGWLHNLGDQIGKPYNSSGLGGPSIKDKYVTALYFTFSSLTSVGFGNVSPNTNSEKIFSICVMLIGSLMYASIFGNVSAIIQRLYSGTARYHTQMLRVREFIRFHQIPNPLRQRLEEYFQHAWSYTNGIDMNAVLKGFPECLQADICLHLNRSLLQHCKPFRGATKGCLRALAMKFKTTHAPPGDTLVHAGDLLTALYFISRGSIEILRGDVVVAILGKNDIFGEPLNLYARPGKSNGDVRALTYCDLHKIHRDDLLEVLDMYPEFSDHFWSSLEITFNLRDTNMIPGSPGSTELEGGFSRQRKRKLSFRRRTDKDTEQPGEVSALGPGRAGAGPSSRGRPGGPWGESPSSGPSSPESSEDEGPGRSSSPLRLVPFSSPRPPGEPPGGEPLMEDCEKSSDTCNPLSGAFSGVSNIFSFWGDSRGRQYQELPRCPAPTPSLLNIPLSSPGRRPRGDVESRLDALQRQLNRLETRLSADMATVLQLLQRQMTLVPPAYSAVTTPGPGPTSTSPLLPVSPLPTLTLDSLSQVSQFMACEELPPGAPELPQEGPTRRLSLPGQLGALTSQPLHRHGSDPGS

SMILES	hERG current change (%, negative = inhibition) at 10uM [%]
O=C(COC(=O)c1ccc(Sc2ccccc2)c([N+](=O)[O-])c1)NC1CCCc2ccccc21 (stereo not shown)	2.44
N/C(=N\OC(=O)COc1ccc2ccccc2c1Br)c1ccccn1	3.81
Cc1ccccc1/C=C1\CCCc2ccccc2C1=O	-0.224
Cn1c(=O)cc(OCCCC(=O)NCCN2CCN(c3ccccc3F)CC2)c2ccccc21	-7.18
CCCCn1c(O)c(C(C)=NCCCn2ccnc2)c(=O)[nH]c1=O	-37
O=S(=O)(Nc1cccc(-c2cn3cccnc3n2)c1)c1ccc(F)cc1	-21.2
CCc1ccc(NC(=O)c2cnc(N3CCN(c4ccccn4)CC3)c3ccccc23)cc1	1.85
CN(C)Cc1c(O)ccc2c(=O)c(-c3ccccc3Cl)c(C(F)(F)F)oc12	7.08
Cn1c(SCC(=O)Nc2ccc(Br)cc2)nc(O)cc1=O	13.3
COc1ccccc1CNC(=O)C1CCC(CNc2c(N3CCOCC3)c(=O)c2=O)CC1 (stereo not shown)	20.1
Cc1ccccc1CC(=O)NCC1CCCCC1	1.34
COc1ccc(NC(=O)COC(=O)Cc2cccs2)cc1OC	-27.4
O=S1(=O)CCN2C(c3cccc4ccccc34)=CSC2=N1	9.4
N#Cc1ccc2c(c1)nc1ccccn12	10.9
CCCC(C)C(=O)Nc1ccc(S(=O)(=O)Nc2nccc(C)n2)cc1 (stereo not shown)	21.5
C1CCN(c2nc3nonc3nc2NCC2CCOCC2)CC1	19.6
Cc1ccc2cc(CCNC(=O)c3cccs3)c(=O)[nH]c2c1	-4.89
O=C(Nc1ccccc1)C1CCN(C(=O)c2ccccc2)CC1	4.62
C/C(=N\NC(=O)C1=NNC(=O)C1C)c1cccs1 (stereo not shown)	11
O=C(CCNS(=O)(=O)c1ccccc1)OCC(=O)c1ccc(F)cc1	-2.98
O=S1(=O)CCC(NC(=S)Nc2ccc(Cl)cc2)C1 (stereo not shown)	-4.28
O=C(Nc1nc(-c2ccccc2)ns1)c1ccncc1	2.33

SMILES	hERG current change (%, negative = inhibition) at 10uM [%]
O=c1c(S(=O)(=O)c2ccc(Cl)cc2)cn(Cc2ccccc2F)c2ccc(F)cc12	10.2
COc1ccc(C)cc1NC(=O)CN1C(=O)COc2ccc(S(=O)(=O)N3CCCCC3)cc21	15.3
CC1(C)CC(=O)C2=C(C1)NC(=O)CC2c1ccc(F)cc1 (stereo not shown)	5.09
Cc1cccc2cc(C#N)c(SCC(=O)NCC3CCCO3)nc12 (stereo not shown)	17
CCCCCCCCC(=O)N/N=C/c1cccc(Br)c1	-2.34
COc1ccc(OC)c2c(C)cc(NCCN3CCOCC3)nc12	-34.5
O=C(CN1C(=O)NC2(CCCC2)C1=O)N1CCN(S(=O)(=O)c2cccc(F)c2)CC1	22.2
C/C(=N\NC(=O)Cc1ccc(F)cc1)c1ccc(O)cc1	13
Cc1ccc(-c2cc(-c3ccc(C)cc3)[n+](-c3ccc(C(=O)[O-])cc3)c(-c3ccc(C)cc3)c2)cc1	-26.8
CC(=O)N1CCC(N(C(=O)Nc2ccc(Cl)cc2)C(C)C)CC1	-6.69
Cc1nc2ccccc2c2oc(C(=O)NCCCN3CC(C)CC(C)C3)cc12 (stereo not shown)	-36.2
CC(C)CNS(=O)(=O)c1cc(C(=O)N2CC(C)OC(C)C2)c(Cl)cc1Cl (stereo not shown)	-13.1
COc1ccc(N2CCN(S(=O)(=O)CCNC(=O)CCCc3ccccc3)CC2)cc1	-0.516
CC(C)N1CC(COc2ccc(Br)cc2)OC1=O (stereo not shown)	-39.5
COc1ccc(NC(=O)c2cc3n(n2)C(C(F)(F)F)CC(c2ccc4c(c2)OCO4)N3)cc1OC (stereo not shown)	-0.625
O=C(OCC(=O)N1CCOCC1)c1ccc2ccccc2c1O	-13.8
Cc1ccc(-c2cc(C(F)F)nc(N3CCC(C)CC3)n2)cc1	14.5
Cc1cccc(N2CCN(C(=O)c3ccccc3NC(=O)C3CCCCC3C(=O)O)CC2)c1 (stereo not shown)	-1.28
COCc1nnc(NC(=O)c2cc(C(=O)OC)cc([N+](=O)[O-])c2)s1	-2.76
COc1ccccc1NC(=O)CSc1ccc(-c2cccs2)nn1	-3.9
CC(C)(Oc1ccc(Cl)cc1)C(=O)OCC(=O)Nc1ncc(Cl)cc1Cl	-2.34
